Source: PMC4336329 (PLoS ONE, 2015)
Screen size: about 310,000 compounds; about 2,200 (0.71%) showed an effect of 50% or more. The effect is printed as a negative number. The list shows a part of the results.

These molecules were tested against human ether-à-go-go-related gene (hERG) potassium channel (human, UniProt Q12809) (assay: primary screen, population patch clamp on CHO cells stably expressing hERG).
human ether-à-go-go-related gene (hERG) potassium channel, sequence (Q12809 whole entry, looked up): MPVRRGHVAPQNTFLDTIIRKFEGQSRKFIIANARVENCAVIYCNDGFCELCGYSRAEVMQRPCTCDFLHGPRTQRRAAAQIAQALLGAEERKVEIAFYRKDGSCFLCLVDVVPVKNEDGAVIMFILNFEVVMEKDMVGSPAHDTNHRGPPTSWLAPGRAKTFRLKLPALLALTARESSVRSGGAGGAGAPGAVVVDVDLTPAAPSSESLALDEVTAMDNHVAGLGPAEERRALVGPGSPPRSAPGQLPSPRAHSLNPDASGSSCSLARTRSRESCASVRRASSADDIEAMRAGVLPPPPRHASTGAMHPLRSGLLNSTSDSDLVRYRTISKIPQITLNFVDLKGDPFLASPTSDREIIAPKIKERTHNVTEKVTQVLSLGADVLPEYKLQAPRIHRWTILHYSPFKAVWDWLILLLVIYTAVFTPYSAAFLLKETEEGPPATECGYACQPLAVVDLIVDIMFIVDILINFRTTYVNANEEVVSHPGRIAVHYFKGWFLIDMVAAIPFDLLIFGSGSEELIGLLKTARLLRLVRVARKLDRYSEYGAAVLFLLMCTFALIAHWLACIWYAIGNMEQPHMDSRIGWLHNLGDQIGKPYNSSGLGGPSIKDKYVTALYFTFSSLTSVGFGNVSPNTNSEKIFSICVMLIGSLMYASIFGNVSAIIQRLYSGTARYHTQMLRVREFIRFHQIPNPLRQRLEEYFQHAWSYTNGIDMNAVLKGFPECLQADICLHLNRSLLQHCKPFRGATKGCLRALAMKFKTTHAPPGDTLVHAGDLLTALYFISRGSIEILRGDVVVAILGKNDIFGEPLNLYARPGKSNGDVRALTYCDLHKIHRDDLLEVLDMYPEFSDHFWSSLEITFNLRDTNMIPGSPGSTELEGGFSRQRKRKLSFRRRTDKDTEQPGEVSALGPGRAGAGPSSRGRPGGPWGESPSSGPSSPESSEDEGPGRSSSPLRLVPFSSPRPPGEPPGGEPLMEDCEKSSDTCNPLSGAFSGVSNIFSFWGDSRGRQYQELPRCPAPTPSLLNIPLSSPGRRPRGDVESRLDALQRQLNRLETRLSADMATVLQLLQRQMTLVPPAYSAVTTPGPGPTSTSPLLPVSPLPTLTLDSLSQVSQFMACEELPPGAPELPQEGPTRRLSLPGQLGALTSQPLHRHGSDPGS
CCN(C(=O)Cc1c(C(=O)O)n(CC)c2ccccc12)c1cccc(C(F)(F)F)c1 was tested, and the “hERG current change (%, negative = inhibition) at 1uM” value was 13.4%. With Cc1cc(C)c2nc(N(CCCN(C)C)C(=O)c3ccc4c(c3)CCCC4)sc2c1.Cl the “hERG current change (%, negative = inhibition) at 1uM” value was 6.37%. CCNC(=O)c1cccc(NC(=O)CC2SC(N3CCCCC3)=NC2=O)c1 (centres unmarked) was tested, and the “hERG current change (%, negative = inhibition) at 1uM” value was 18.1%. In the case of COc1cc(OC)cc(C(=O)NCC(=O)NCC(c2ccco2)N2CCCCC2)c1 (centres unmarked), the “hERG current change (%, negative = inhibition) at 1uM” value is reported as 13.9%. CCS(=O)(=O)Nc1ccc(C(=O)CC2(O)C(=O)Nc3ccc(Br)cc32)cc1 (centres unmarked) was tested, and the “hERG current change (%, negative = inhibition) at 1uM” value was 9.44%. With CC(=O)Nc1ccccc1NC(=O)c1ccccc1 the “hERG current change (%, negative = inhibition) at 1uM” value was 11%. Cc1coc2c1c(C)cc1oc(=O)c(CC(=O)N[C@H](C(=O)O)C(C)C)c(C)c12 was tested, and the “hERG current change (%, negative = inhibition) at 1uM” value was 10.1%. In the case of CN(C(=O)CSc1nc2cc(C(=O)O)ccc2c(=O)n1Cc1ccccc1)C1CCS(=O)(=O)C1 (centres unmarked), the “hERG current change (%, negative = inhibition) at 1uM” value is reported as 17.6%. O=C(NCCN1CCN(Cc2ccccc2)CC1)c1cc2c(=O)[nH]c3ccccc3c2s1 was tested, and the “hERG current change (%, negative = inhibition) at 1uM” value was 15.2%. Cc1cc(NC(=O)CSC2=NCCS2)no1 was tested, and the “hERG current change (%, negative = inhibition) at 1uM” value was 7.5%. In the case of O=C(NC1CCCCCC1)C1CCCN1S(=O)(=O)c1cccc2cccnc12 (centres unmarked), the “hERG current change (%, negative = inhibition) at 1uM” value is reported as 11.4%. CCOC(=O)c1cc2c(nc1N)CCCC2 was tested, and the “hERG current change (%, negative = inhibition) at 1uM” value was 5.5%. In the case of CCSc1nc2c(c(=O)[nH]1)C(c1cccs1)C(C(=O)OC)=C(C)N2 (centres unmarked), the “hERG current change (%, negative = inhibition) at 1uM” value is reported as 10.7%. In the case of COCCOC(=O)C1=C(C)NC(=O)NC1c1ccc(OC(=O)c2ccco2)c(OC)c1 (centres unmarked), the “hERG current change (%, negative = inhibition) at 1uM” value is reported as 6.38%. With CC(=O)Nc1ccc(S(=O)(=O)N2CCN(C(=O)c3ccco3)CC2)cc1 the “hERG current change (%, negative = inhibition) at 1uM” value was 18%. CCOc1ccc(NS(=O)(=O)c2ccc(C(=O)N3CCCC3)cc2)cc1 was tested, and the “hERG current change (%, negative = inhibition) at 1uM” value was 12.2%. In the case of CCn1cc(C(=O)C(F)(F)F)c2ccccc21, the “hERG current change (%, negative = inhibition) at 1uM” value is reported as -0.712%. Cc1cccc(NC(=O)COc2cccc3c2CCN(Cc2ccccc2)C3=O)c1C was tested, and the “hERG current change (%, negative = inhibition) at 1uM” value was 0.47%. Cc1cccc(NC(=O)CNC(=O)COc2ccc(C(=O)c3ccc(F)cc3)cc2)c1C was tested, and the “hERG current change (%, negative = inhibition) at 1uM” value was 1.92%. With c1cc(-c2nnc3n2CCC3)[nH]n1 the “hERG current change (%, negative = inhibition) at 1uM” value was 15.6%. For O=C(NCCOc1ccccc1)c1cccc2c1C(=O)c1ccc(Cl)cc1S2(=O)=O, the “hERG current change (%, negative = inhibition) at 1uM” value was 8.02%. With CC1CCc2c(sc(NC(=O)COC(=O)c3ccc(NC(=O)CC#N)cc3)c2C#N)C1 (centres unmarked) the “hERG current change (%, negative = inhibition) at 1uM” value was 0.557%. In the case of COC(=O)c1c(-c2cccc(C)c2)csc1N, the “hERG current change (%, negative = inhibition) at 1uM” value is reported as 17.1%. COc1ccc(CCNC(=O)C(Sc2ccccn2)c2ccccc2)cc1OC (centres unmarked) was tested, and the “hERG current change (%, negative = inhibition) at 1uM” value was 7.19%. With COc1cc(/C=N/NC(=O)CN(Cc2ccco2)S(=O)(=O)c2ccccc2)ccc1O the “hERG current change (%, negative = inhibition) at 1uM” value was 0.474%. For CC1(C)OC2OC(COC(=O)c3ccc([N+](=O)[O-])cc3)C3OC(C)(C)OC3C2O1 (centres unmarked), the “hERG current change (%, negative = inhibition) at 1uM” value was 3.65%. With Cc1cc(NC(=O)CSc2ncnc3ccccc23)no1 the “hERG current change (%, negative = inhibition) at 1uM” value was 15.8%. In the case of CC(CN1CCNCC1)(NS(=O)(=O)c1ccccc1)c1ccccc1 (centres unmarked), the “hERG current change (%, negative = inhibition) at 1uM” value is reported as 14.9%. For O=C(Nc1ncccn1)c1ccc([N+](=O)[O-])o1, the “hERG current change (%, negative = inhibition) at 1uM” value was 10.8%. For COc1cc(C2/C(=C(\O)c3ccc4c(c3)CC(C)O4)C(=O)C(=O)N2CCCn2ccnc2)ccc1O (centres unmarked), the “hERG current change (%, negative = inhibition) at 1uM” value was 11.3%. With N#Cc1nc(Cc2cccc3ccccc23)oc1NCCN1CCCCC1 the “hERG current change (%, negative = inhibition) at 1uM” value was -30.7%. CCn1cc(/C=C(\NC(=O)c2ccccc2Cl)C(=O)N2CCOCC2)c2ccccc21 was tested, and the “hERG current change (%, negative = inhibition) at 1uM” value was 10.1%. With COc1ccc(C(=O)Nc2ccccc2N2CCN(C(=O)C(C)C)CC2)cc1Cl the “hERG current change (%, negative = inhibition) at 1uM” value was -16.2%. With CCCNC(=O)Cn1c(=O)cnc2ccccc21 the “hERG current change (%, negative = inhibition) at 1uM” value was 20.4%. In the case of O=C(COC(=O)c1cc(-c2ccccn2)nc2ccccc12)Nc1ncc(C(F)(F)F)cc1Cl, the “hERG current change (%, negative = inhibition) at 1uM” value is reported as 13%. With c1ccc2c3c([nH]c2c1)C(C1CCCCC1)N(Cc1ncc[nH]1)CC3 (centres unmarked) the “hERG current change (%, negative = inhibition) at 1uM” value was -3.59%. In the case of Cc1cc(C)nc(Sc2nc(Cl)nc(N(c3ccccc3)c3ccccc3)n2)n1, the “hERG current change (%, negative = inhibition) at 1uM” value is reported as 12.1%. In the case of C[C@@H](C(=O)N[C@H](C(=O)O)c1ccccc1)n1nnc2ccccc2c1=O, the “hERG current change (%, negative = inhibition) at 1uM” value is reported as 13.2%. For CCOC(=O)C(C)S(=O)(=O)c1ccc(C(F)(F)F)cn1 (centres unmarked), the “hERG current change (%, negative = inhibition) at 1uM” value was 11.5%. With Cc1cccc(OCC(O)CN2CCNCC2)c1.Cl (centres unmarked) the “hERG current change (%, negative = inhibition) at 1uM” value was 17.8%. With C=C(C)C(=O)NC1=NN(c2ccccc2)C(=O)C1 the “hERG current change (%, negative = inhibition) at 1uM” value was 12.5%. COc1ccc2[nH]cc(CCNC(=O)c3ccc4ccccc4n3)c2c1 was tested, and the “hERG current change (%, negative = inhibition) at 1uM” value was 11.1%. CN(CC(=O)Nc1cccc(F)c1)C(=O)CN1C(=O)NC2(CCCCC2)C1=O was tested, and the “hERG current change (%, negative = inhibition) at 1uM” value was 3.28%. With Cc1ccc(C2CC(C(F)(F)F)n3nc(C(=O)NCc4c(C)nn(C)c4C)c(Cl)c3N2)cc1 (centres unmarked) the “hERG current change (%, negative = inhibition) at 1uM” value was 9.37%. In the case of Cc1ccc(NC(=O)CC2SC3=NCCCN3C2=O)c(C)c1 (centres unmarked), the “hERG current change (%, negative = inhibition) at 1uM” value is reported as 13.8%. For O=[N+]([O-])c1ccc(/C=N/n2c(-c3cccnc3)n[nH]c2=S)cc1, the “hERG current change (%, negative = inhibition) at 1uM” value was 10.8%. For CCC1=C(OC(=O)N(CC)CC)N2C(=O)OC(=NCCOC)[C@]2(Cc2ccccc2)[C@H]2C1=CC[C@H]1C(=O)N(CC(=O)OC)C(=O)[C@H]12, the “hERG current change (%, negative = inhibition) at 1uM” value was -2.4%. With CNS(=O)(=O)c1cccc(C(=O)OCc2csc(-c3ccccc3)n2)c1 the “hERG current change (%, negative = inhibition) at 1uM” value was 1.31%. For COc1ccc(/C(O)=C2\C(=O)C(=O)N(Cc3ccco3)C2c2cc(OC)ccc2OC)cc1 (centres unmarked), the “hERG current change (%, negative = inhibition) at 1uM” value was 15.6%. In the case of O=C(O)CCn1c(Cc2ccccc2)nc2ccccc21, the “hERG current change (%, negative = inhibition) at 1uM” value is reported as 10.1%. For Cc1ccc(S(=O)(=O)N2CCOCC2)cc1NC(=O)COc1ccc2c(C)cc(=O)oc2c1, the “hERG current change (%, negative = inhibition) at 1uM” value was 1.24%. With O=S(=O)(c1ccc(Cl)cc1)n1ccc(-c2cccc(OCc3c(F)cccc3Cl)c2)n1 the “hERG current change (%, negative = inhibition) at 1uM” value was 13.7%. C#CCOCCOCCOCCNc1nc(N2CCOCC2)nc(N2CCN(C(=O)CCCCCCCCCCNC(=O)[C@@H]([C@H](C)O)n3cc(C)nn3)CC2)n1 was tested, and the “hERG current change (%, negative = inhibition) at 1uM” value was 13.9%.
